In patent US20140331365A1 (priority 2008, published 2014):

Tests used:
Arg9-GFP = Arg9-GFP (Aequorea victoria, UniProt P42212)
Protocol: FIGS. 9A-D. Modulation of effector entry into root cells by phosphoinositides a, Stimulation of Avr1b(N)-GFP entry by PI-4-P and inhibition by IP2. b, Stimulation of AvrL567(N)-GFP entry by PI-4-P and inhibition by IP2. c, Entry of Arg9-GFP is not stimulated by PI-4-P nor inhibited by IP2. In each case, 1 mg/ml protein was incubated with soybean root tips for 9 hr or 12 hr then washed and photographed. Either 250 μM di-octanoyl-PI-4-P or 500 μM IP2 was preincubated with the proteins for 30 min prior to exposure to the roots.
To test whether IP2 could block effector uptake in planta, which would imply that a PI-4-P-like molecule mediated uptake in planta, Avr1b(N)-GFP (SEQ ID NO: 46) or AvrL567(N)-GFP (SEQ ID NO: 119) was preincubated with 500 μM IP2 for 30 min prior to exposure to soybean roots.
Liposomes were prepared from a suspension of 0.71 μg/ml phosphatidyl-choline, 0.29 μg/ml phosphatidyl-ethanolamine (PC/PE) or 0.64 μg/ml phosphatidyl-choline, 0.26 μg/ml phosphatidyl-ethanolamine, 0.1 μg/ml phosphatidyl-inositol-phosphate (PC/PE/PI-x-P). The lipid mixtures were dried under vacuum overnight, then the resultant lipid films were rehydrated at 1 mg/mL (total lipid) in 20 mM Tris-HCl (pH 6.8) 100 mM NaCl, 2 mM dithiothreitol by three cycles of freeze-thawing. […] Pellets containing liposome-bound proteins and supernatants containing free proteins, were then analyzed by SDS-PAGE. […]

[1] = tested on: human lung epithelial cell line A549

O=P(O)(O)OC1[C@@H](O)[C@H](O)C(OP(=O)(O)O)[C@H](O)[C@@H]1O (some centres unmarked) [IP2, Inositol-1,4-diphosphate]
inhibition of binding of Arg9-GFP to liposomes (Arg9-GFP): could not inhibit | inhibition of accumulation/entry of AvrL567(N)-GFP in A549 cells [1]: strongly inhibited
